Assay results: the RNAGym collection of RNA variant scans (doi:10.1073/pnas.2313332121)
Variants at the background level are over-represented here.

B1: TPR 5TU (parent)
chain: GGAUCUUCUCGAUCUAACAAAAAAGACAAAUCUGCCACAAAGCUUGAGAGCAUCUUCGGAUGCAGAGGCGGCAGCCUUCGGUGGCGCGAUAGCGCCAACGUUCUCAACUAUGACACGCAAAACGCGUGCUCCGUUGAAUGGAGUUUAUCAUG

Variants of: B1
Assay: polymerase ribozyme fitness, log enrichment relative to wild type (log ratio); higher = more active; in vitro selection for triplet polymerase activity
Summary of the method: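 Both subunits of a heterodimeric triplet polymerase ribozyme were given their own mutant library, built by PCR and transcribed. Each library was annealed with a biotinylated primer, the partner subunit and triplets, incubated frozen at −7 °C, and its extended constructs gel-excised, captured on streptavidin beads and amplified by RT-PCR, all in one round done in triplicate. Fitness is the logarithm of genotype enrichment relative to wild-type enrichment, with replicates averaged by inverse-variance weighting. That logarithm is base 2, and Illumina-sequenced genotypes needed ≥10 input reads and ≥1 read per output.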

| Variant | polymerase ribozyme fitness (log ratio) |
| --- | --- |
| GGAUCUUCUCGAUCUAACAAAAAAGACAAAUCUGCCACAAAGCUUGAGAGCAUCUGCGGAUGCAGAGGCGGCAGCCUUCGGUGACGCGAUAGCGCCAACGUUCUCAACUAUGACACGCAAAACGCGUGCUCCGUUGAAUGGAGUUUAUCAUG [U56G G84A] | -3.48 |
| GGAUCUUCUCGAUCUAACAAAAAAGACAAAUCUGCCACAAAGCUUGAGAGCAUCUGCGGAUGCAGAGGCGGCAGCCUUCGGUGCCGCGAUAGCGCCAACGUUCUCAACUAUGACAUGCAAAACGCGUGCUCCGUUGAAUGGAGUUUAUCAUG [U56G G84C C116U] | -4.17 |
| GGAUCUUCUCGAUCUAACAAAAAAGACAAAUCUGCCACAAAGCUUGAGAGCAUCUGCGGAUGCAGAGGCGGCAGCCUUCGGUGUCGCGAUAGCGCCAACGUUCUCAACUAUGACACGCAAAACGCGUGCUCCGUUGAAUGGAGUUUAUCAUG [U56G G84U] | -2.16 |
| GGAUCUUCUCGAUCUAACAAAAAAGACAAAUCUGCCACAAAGCUUGAGAGCAUCUGCGGAUGCAGAGGCGGCAGCCUUCGGUGGCGCGAUAUCGCCAACGUUCUCAACUAUGACGGGCAAAACGCAUGCUCCGUUGAAUGGCGUUUAUCGUG [U56G G92U A115G C116G G126A A142C A150G] | ≤ -4.2 |
| GGAUCUUCUCGAUCUAACAAAAAAGACAAAUCUGCCACAAAGCUUGAGAGCAUCUGCGGAUGCAGAGGCGGCAGCCUUCGGUGGCGCGAUAGCGCCAACUUUCUCAACUAUGACACGCAAAACGCGUGCUCCGAUGAAUGGAGUUAAACAUG [U56G G100U U134A U146A U148A] | ≤ -4.2 |
| GGAUCUUCUCGAUCUAACAAAAAAGACAAAUCUGCCACAAAGCUUGAGAGCAUCUGCGGAUGCAGAGGCGGCAGCCUCCGGUGGCGCGAUAGCGCCAAGGUUCUCAACUAUGACACGCAAAACCUGUGCUCCGUUGAAUGGAGUUUAUCAUG [U56G U78C C99G G124C C125U] | -2.94 |
| GGAUCUUCUCGAUCUAACAAAAAAGACAAAUCUGCCACAAAGCUUGAGAGCAUCUGCGGAUGCAGAGGCGGCAGCCUUCGGUGGCGCGAGAGCGCCAACGUUCUCAACUAUGACACGCUAAACGCGUGCUCCGUUGAAUGUAGUUUAUCAUG [U56G U90G A119U G141U] | ≤ -4.2 |
| GGAUCUUCUCGAUCUAACAAAAAAGACAAAUCUGCCACAAAGCUUGAGAGCAUCUUAGGCUGCAGAGGCGGUAGCCUUCGGUGGCGCGAUAGCGCCAACGUUCUCAACUAUGACACGCAAAACGCGUGCUCCGUUGAAUUGAGUUUAUCGUG [C57A A60C C72U G140U A150G] | ≤ -4.2 |
| GGAUCUUCUCGAUCUAACAAAAAAGACAAAUCUGCCACAAAGCUUGAGAGCAUCUUAGGCAGCAGAGGCGGCAGCCUUCGGUGGCGCAAUAGCGCCAACGUUCUCAACUAUGACACGCAAAACGCGUGCUCCGUUGAAUGGAGUUUAGCAUG [C57A A60C U61A G88A U148G] | ≤ -4.2 |
| GGAUCUUCUCGAUCUAACAAAAAAGACAAAUCUGCCACAAAGCUUGAGAGCAUCUUAGGAUGCCGAGGCGGCAGCCUUCGGUGGCGCGAUAGCGCCAACGUUCUCAACUAUGACACGCAAAACGCGUGGUCCGUUGAAUGGAGUUUAUCAUG [C57A A64C C129G] | ≤ -4.2 |
| GGAUCUUCUCGAUCUAACAAAAAAGACAAAUCUGCCACAAAGCUUGAGAGCAUCUUAGGAUGCAGAGGCGGCUGCCUUCGGUGACGCGAUAGCGCCAACGUUCUCAACUAUGACACGCAAAACGCGUGCUCCGUAGAAUGGAGUUUAUCAUG [C57A A73U G84A U135A] | -2.22 |
| GGAUCUUCUCGAUCUAACAAAAAAGACAAAUCUGCCACAAAGCUUGAGAGCAUCUUAGGAUGCAGAGGCGGCAGCCUUCGGUGGCGCGCUAGCGCCAACGUUAUCAUCUAUGACACGCAAAACGCGUUCUCCGUUGAAUGGAGUUUAUCAUG [C57A A89C C103A A107U G128U] | ≤ -4.2 |
| GGAUCUUCUCGAUCUAACAAAAAAGACAAAUCUGCCACAAAGCUUGAGAGCAUCUUAGGAUGCAGAGGCGGCAGCCUUCGGUGGCGCGGUGGCGCCAACGUUCUCAACUAUGACACGCAAAACGCGUGCUCCGUUGAAUGGAGUCUAUCAGG [C57A A89G A91G U145C U151G] | ≤ -4.2 |
| GGAUCUUCUCGAUCUAACAAAAAAGACAAAUCUGCCACAAAGCUUGAGAGCAUCUUAGGAUGCAGAGGCGGCAGCCUUCGGUGGCGCGAUCGCGCCAACGUUCUCAACUAUGACACGCAAAACGCGUGCUCCGUUGAAUGGAGUUUAUCAUG [C57A A91C] | ≤ -4.2 |
| GGAUCUUCUCGAUCUAACAAAAAAGACAAAUCUGCCACAAAGCUUGAGAGCAUCUUAGGAUGCAGAGGCGGCAGCCUUCGGUGGCGCGAUGGCGCCAACGAUCUCAACUAUGACACGCAAAACGCGUGCUCCGUUGAAUGGGGUUUAUCAUG [C57A A91G U101A A142G] | -4.08 |
| GGAUCUUCUCGAUCUAACAAAAAAGACAAAUCUGCCACAAAGCUUGAGAGCAUCUUAGGAUGCAGAGGCGGCAGCCUUCGGUGGCGCGAUAGCGCCAACGUUCUCACCUAUGACACGCAAAACGAGUGCUCCAUUAAAUGGAGUUUAUCAAG [C57A A107C C125A G133A G136A U151A] | ≤ -4.2 |
| GGAUCUUCUCGAUCUAACAAAAAAGACAAAUCUGCCACAAAGCUUGAGAGCAUCUUAGGAUGCAGAGGCGGCAGCCUUCGGUGGCGCGAUAGCGCCAACGUUCUCAACUAUGUCACGCAAAACGCGUGCUCCGUUGAAUGGAGUUUAUCAUG [C57A A113U] | -1.86 |
| GGAUCUUCUCGAUCUAACAAAAAAGACAAAUCUGCCACAAAGCUUGAGAGCAUCUUAGGAUGCAGAGGCGGCAGCCUUCGGUGGCGCGAUAGCGCCAACGUUCUCAACUAUGACACGCAAACCGCGUGCUCCGUUGAAUGGAGUUUAUCAUG [C57A A122C] | -0.0129 |
| GGAUCUUCUCGAUCUAACAAAAAAGACAAAUCUGCCACAAAGCUUGAGAGCAUCUUAGGAUGUAGAGGCGGCAGCCUUCGGUGGCGCGAUAGGGCCAACGUUCUCAACUAUGACAGGCAAAACGCGAGCUCCGUUGAAUGGAGUUUAUCAUG [C57A C63U C93G C116G U127A] | ≤ -4.2 |
